Source: PubChem BioAssay AID485344 (National Center for Advancing Translational Sciences (NCATS), 2010)
Out of some 340,000 compounds screened, about 6,900 (2%) were called active. No stated cut-off is given here; in the data, active means inhibition above about 30%; inactive means below that, where a call was filed. Only a part is listed here, and it is no random draw. Where no call is shown, the source filed none.

biological target: D(2) dopamine receptor (Homo sapiens) (UniProt P14416); assay: HTS Assay for Allosteric Antagonists of the Human D2 Dopamine Receptor: Primary Screen for Antagonists; conditions: HEK293 TREx D2 cells, calcium flux, dopamine EC80; at 10 µM; stronger effect = higher value; further: 0% is about no effect
Summary of the method: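 Overnight-induced (tetracycline, 30 C) HEK293 T-REx cells carrying force-coupled D2 receive a no-wash calcium dye, then compound, then EC80 dopamine at 180 s; signals are read kinetically throughout.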

Chain of UniProt P14416 (P14416 whole entry, looked up): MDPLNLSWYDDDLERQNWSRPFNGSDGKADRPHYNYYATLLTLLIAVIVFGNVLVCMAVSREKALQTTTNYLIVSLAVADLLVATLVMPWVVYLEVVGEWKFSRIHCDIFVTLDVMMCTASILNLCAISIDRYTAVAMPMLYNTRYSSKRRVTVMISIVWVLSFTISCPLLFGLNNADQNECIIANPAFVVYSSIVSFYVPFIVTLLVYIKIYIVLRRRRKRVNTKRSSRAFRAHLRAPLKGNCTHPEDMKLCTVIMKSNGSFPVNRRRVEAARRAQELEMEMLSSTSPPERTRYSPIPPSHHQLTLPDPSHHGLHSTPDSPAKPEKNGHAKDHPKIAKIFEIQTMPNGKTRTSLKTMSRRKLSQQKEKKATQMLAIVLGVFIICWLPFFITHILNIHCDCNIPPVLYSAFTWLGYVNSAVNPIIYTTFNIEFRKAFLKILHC

SMILES	inhibition
Cc1cc(NC(=O)c2cc(-c3cccc(Cl)c3)on2)nn1Cc1ccc(Cl)cc1	-2.15%
CCCN(CCC)C(=O)Cn1c(=O)n(-c2ccc(C)c(C)c2)c(=O)c2c3c(sc21)CCCCC3	4.34%
CC1CCC(NC(=O)CCc2cn(Cc3ccccc3Cl)c3ccccc23)CC1 (configuration not stated)	13.3%
Cc1nc2ccc(S(=O)(=O)N(CC(=O)Nc3cccc(Cl)c3)Cc3ccccc3)cc2s1	4.04%
CCOc1ccc(NC(=O)CCn2c(=O)c3cccn3c3cccnc32)cc1	-4.06%
Cc1nn(CC(=O)NCc2ccc(N(C)C)cc2)c(=O)c2c(C)n(-c3ccc(Cl)cc3)nc12	-10.1%
COc1ccc(CNC(=O)Cc2c(C)c3c(cc(C)c4c(C)coc43)oc2=O)cc1OC	-15.1%
Cc1nc2cccnc2n1C1CCN(S(=O)(=O)N(C)C)CC1	-5.62%
N/C(=N\N=C/c1ccc(F)cc1)N/N=C\c1ccc(F)cc1	active: 40.3%
CCOC(=O)c1cc(-c2ccc(C)cc2)n(CC(=O)Nc2ccccc2F)c1C	9.69%
COc1ccc(Br)c2c1-c1nc(NC(=O)c3ccccc3F)sc1C2	0.339%
COc1ccc(CCCc2nnc(SCC(=O)Nc3cc(C)ccc3C)o2)cc1	5.71%
COC(=O)c1ccccc1NC(=O)c1ccc(COc2cc(C)cc(C)c2)o1	8.38%
CCc1ccc(-c2[nH]nc3nc(-c4ccc(OC)cc4)cc(C(=O)NCCCOC)c23)cc1	-11.2%
CC(=O)N1CCC2(CC1)OC(=O)C(C)=C2C(=O)Nc1cc(C)ccc1C	-5.06%
CCOC(=O)c1cc(-c2ccc(C)o2)n[nH]1	active: 30.4%
O=C(c1ccccc1Cl)N(Cc1ccco1)c1ccccn1	-7.52%
CCCN(C(=O)c1cc2ccc3cccnc3c2[nH]1)c1ccc(F)cc1	6.76%
COC(=O)c1sc2cccc(F)c2c1S(=O)(=O)Nc1ccc(N(C)C)cc1	-5.05%
Cc1cc(Br)ccc1NC(=O)Cn1cnc2sc(C)c(S(=O)(=O)N3CCN(C)CC3)c2c1=O	-0.448%
COc1ccc(-c2nc(SCC(=O)N3CCN(c4ccc(F)cc4)CC3)n[nH]2)cc1	0.583%
CCCCOc1ccc(CNC(=O)Cc2ccc(NC(=O)N3CCCCc4ccccc43)cc2)cc1	6.34%
CCn1c(=O)n(-c2ccc(F)cc2)c(=O)c2sc3ccccc3c21	-4.01%
CC(C)(C)OC(=O)N1CCC(c2c(C(=O)N3CCN(c4ccccc4)CC3)cnn2-c2ccccc2)CC1	-1.47%

SMILES	inhibition
CCOC(=O)c1c(Nc2ccc(F)cc2)nnc(-c2ccccc2)c1-c1ccccc1	2.97%
CCOc1ccc(C(=O)NCC(c2ccc3c(c2)OCO3)N2CCN(c3ccccc3F)CC2)cc1 (configuration not stated)	13.2%
COc1ccc(OC)c(CCNC(=O)c2c(C)nn(-c3ccc(F)cc3)c2-n2cccc2)c1	3.75%
COc1ccc(Cn2nnc(C(=O)Nc3cc(OC)ccc3OC)c2N)cc1	-8.45%
Cc1ccc(NC(=O)Cn2c(=O)n(Cc3ccco3)c(=O)c3ccc(C(=O)NC4CCCC4)cc32)c(C)c1	13.4%
COCCCNC(=O)C1CCN(Cc2nc(-c3ccc(OC)c(OC)c3)oc2C)CC1	6.69%
Cc1cccc(NC(=O)CCCCCN2C(=O)c3ccccc3C2=O)n1	active: 34.5%
CCn1c(=O)cc(SCC(=O)NCCc2cc(OC)ccc2OC)c2ccccc21	4.59%
CCOc1ccc(NC(=O)c2c(NCc3ccc(C)o3)sc3c2CCC(C)C3)cc1 (configuration not stated)	10.8%
Cc1nnc(N2CCC(C(=O)NC3CCCCC3)CC2)c2nn(-c3ccc(Cl)cc3)c(C)c12	0.159%
Cn1c(C(=O)NCCCN2CCN(c3ccccc3F)CC2)cc2c(=O)[nH]c3ccccc3c21	active: 105%
CCC(=O)N1CCc2cc(S(=O)(=O)CCC(=O)N3CCN(c4cc(C)ccc4C)CC3)ccc21	8.09%
COc1cccc(NC(=O)CSc2nc3ccccc3n2C)c1	-7.77%
CCOc1ccc(NC(=O)c2c(NC(=O)Cc3ccccc3)sc3c2CCC(C)C3)cc1 (configuration not stated)	-1.8%
COc1ccc(OC)c(NC(=O)CN(C)S(=O)(=O)c2ccc3[nH]c4c(c3c2)CCCC4)c1	-13.2%
COC(=O)c1ccc(OCC2c3cc(OC)c(OC)cc3CCN2C(=O)C(C)C)cc1 (configuration not stated)	14.9%
CCOC(=O)COc1ccc(C)cc1C(=O)c1ccn2nc(-c3ccc(C)cc3)cc2n1	7.28%
O=C(CSc1ncc2c(n1)-c1ccccc1N(Cc1ccccc1)S2(=O)=O)Nc1ccccc1	4.34%
COCCNC(=O)c1ccc(CSc2nc3ccncc3n2Cc2ccccc2)cc1	0.625%
COc1ccc(-c2cc(C#N)nc(N3CCN(C)CC3)n2)cc1	active: 55%
COc1ccc(C)cc1Nc1nc2cc(Cl)c(Cl)cc2nc1-n1nc(C)cc1C	9.45%
COc1ccc(C)cc1NC(=O)CSc1nc(=O)n(Cc2ccncc2)c2c1CCC2	-10.9%
Cc1ccc(NC(=O)Cn2c(=O)n(-c3ccccc3)c(=O)c3c4c(sc32)CCCC4)cc1	-0.324%
